Measured values from PubChem BioAssay AID1745853 (National Center for Advancing Translational Sciences (NCATS), 2022).
Values joined by “and” are separate entries in the source; they are usually repeats but may differ in a detail not shown here. Identical values can stand only once. The list shows a part of the results. These are further read-outs of the screen, such as a control signal, another cell line or another target. No call is given for them.

What was measured:
Experiment in all cases: Primary Screen for Target Class Profiling of Small Molecule Inhibitors of Methyltransferases
[1] = target: Glycine N-methyltransferase (Homo sapiens) (UniProt Q14749); conditions: purified enzyme, MTase-Glo SAH luminescence; measured here: GNMT inhibition; at 40 µM; stronger effect = lower value
How it was run: (§1)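 Each enzyme was reacted with SAM and its substrate, with compounds tested once at 40 uM; SAH formed was read by MTase-Glo luminescence.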

[2] = target: Guanidinoacetate N-methyltransferase (Homo sapiens) (UniProt Q14353); conditions: purified enzyme, MTase-Glo SAH luminescence; measured here: GAMT inhibition; at 40 µM; stronger effect = lower value
How it was run: as §1

[3] = target: Histamine N-methyltransferase (Homo sapiens) (UniProt P50135); conditions: purified enzyme, MTase-Glo SAH luminescence; measured here: HNMT inhibition; at 40 µM; stronger effect = lower value
How it was run: as §1

[4] = target: Nicotinamide N-methyltransferase (Homo sapiens) (UniProt P40261); conditions: purified enzyme, MTase-Glo SAH luminescence; measured here: NNMT inhibition; at 40 µM; stronger effect = lower value
How it was run: as §1

[5] = target: Phenylethanolamine N-methyltransferase (Homo sapiens) (UniProt P11086); conditions: purified enzyme, MTase-Glo SAH luminescence; measured here: PNMT inhibition; at 40 µM; stronger effect = lower value
How it was run: as §1
% is scaled to controls: 0 for no effect and ±100 for the full control effect.

SMILES	activity change, negative = inhibition [1]	activity change, negative = inhibition [2]	activity change, negative = inhibition [3]	activity change, negative = inhibition [4]	activity change, negative = inhibition [5]
CC(C)Cn1c(=O)c2ccc(C(=O)NC3CCCC3)cc2n2c(=O)n(CC(=O)N(C)c3ccccc3)nc12	1.37%	0%	2.42%	-0.383%	4.03%
CCC(C)NC(=O)c1ccc2c(=O)n(C(C)C)c3nn(Cc4ccc(N5CCCC5=O)cc4)c(=O)n3c2c1 (configuration not stated)	-2.26%	-7.6%	6.92%	-17.2%	-4.71%
CC[C@H]1CN(C(=O)N2CCOCC2)CC[C@H]1CC(=O)NCCOC	-0.471%	0.642%	0.662%	-6.42%	-2.44%
CC(C)=CCC1(CO)CCCN(Cc2csc(C)n2)C1 (configuration not stated)	-0.383%	3.55%	1.32%	-2.09%	-0.009%
CC(=O)NC1CCN(C(=O)c2coc(COc3cccc(C(F)(F)F)c3)n2)C1 (configuration not stated)	-3.18%	-9.11%	-2.09%	-13.2%	-11.7%
CC1(C(=O)NC2CCCCCCC2)Cn2c(cc3sccc32)C(=O)N1Cc1ccccc1Cl (configuration not stated)	5.36%	-0.817%	10.8%	13.7%	1.95%
CC(=O)OC1C(OC(=O)c2ccccc2)C2C(C)(C)CC(=O)CC2(C)C23CCC(C)(C2)C(O)CC13 (configuration not stated)	-5.54%	-13.8%	0.974%	-25.1%	-8.6%
Cc1ccc(NC(=O)CCc2nnc3n(CCCOC(C)C)c(=O)c4ccccc4n23)cc1C	-1.72%	4.98%	3.69%	0.612%	-0.405%
CCc1ccc(N2C(=O)c3cc(-c4ccc(OC)cc4)nn3CC2(C)C(=O)NCc2ccccc2OC)cc1 (configuration not stated)	3.8%	4.32%	3.48%	3.03%	-1.41%
Cc1cc2ncc(C(=O)NCC(C)(C)NCC(=O)N3CCC[C@H]3C#N)cn2n1	-8.12%	-8.54%	10.1%	-21.9%	-1.6%
C[S+](=O)([O-])N1CC2(CCCN2CC2CCCCC2)Cc2ccccc21 (configuration not stated)	-8.21%	-8.19%	-14.5%	-17.8%	-7.79%
C[C@H](Nc1cc2c(-c3ccc4c(c3)OCO4)noc2cn1)c1ccccc1	-8.03%	-21.1%	-5.18%	-33.5%	-82.8%
CN1C(=O)c2cc(C(=O)NCc3ccco3)nn2CC1(C)C(=O)NC1CCCC1 (configuration not stated)	9.59%	0.161%	6.14%	10.1%	3.8%
Cc1ccc(CNC(=O)C2(C)Cn3cnc(C(=O)NCc4ccccc4F)c3C(=O)N2C2CC2)cc1 (configuration not stated)	-4.36%	0.984%	-2.41%	-2.11%	-3.41%
Cc1cc(F)ccc1NC(=O)Cn1nc2nc(Nc3ccc(F)cc3)ccn2c1=O	-1.91%	0%	8.76%	0.914%	2.3%
CN(Cc1ccccc1)Cc1cc(C[C@H]2CNCC[C@H]2CC(=O)NCc2cccs2)no1	-9.55%	-15%	-11.5%	-17.1%	-14.7%
O=C(NCCN1CCCC1)C1CCN(c2cnn(CC3CC3)c(=O)c2)C1 (configuration not stated)	-4.37%	-4.26%	-25.2%	-10.7%	9.65%
COc1ccc(CN2C(=O)c3cc4ccc(OC)cc4n3CC2(C)C(=O)NCC2CCCO2)cc1 (configuration not stated)	7.72%	1.78%	8%	14.7%	3.52%
Cc1ccccc1-c1nccc2c(=O)cc(C3=CCOCC3)oc12	-28.1%	-14%	-17.8%	-21.5%	5.6%
CC1(C(=O)NC2CCCCCC2)Cn2c(cc3sccc32)C(=O)N1Cc1cccc(F)c1 (configuration not stated)	2.33%	4.22%	6.08%	-1.25%	1.5%
COc1cccc(N2C(=O)c3cc4sccc4n3CC2(C)C(=O)NC2CCCC(C)C2C)c1 (configuration not stated)	-4.81%	0%	1.72%	3.01%	-0.978%

SMILES	activity change, negative = inhibition [1]	activity change, negative = inhibition [2]	activity change, negative = inhibition [3]	activity change, negative = inhibition [4]	activity change, negative = inhibition [5]
C=C1CCC2[C@@](C)(C(=O)O)CCC[C@@]2(C)[C@@H]1CCc1ccoc1 (some centres not stated)	-6.49%	-7.18%	3.25%	-19.2%	-11.4%
CC1(C(=O)NC2CCCCC2)Cn2c(ccc2-c2ccco2)C(=O)N1Cc1cccnc1 (configuration not stated)	-7.11%	-8.84%	6.04%	-1.03%	-5.07%
Cc1ccc(NC(=O)CN(C)S(=O)(=O)c2ccc3[nH]c4c(c3c2)CCCC4)c(Br)c1	-4.91%	1.63%	-0.751%	-8.41%	-1.25%
CCOC(=O)CNC(=O)C1(C)Cn2c(ccc2-c2ccco2)C(=O)N1Cc1cc(OC)ccc1OC (configuration not stated)	-5.63%	0%	0.3%	-3.8%	-0.743%
COc1ccc2c(c1)CCC1C2CC[C@@]2(C)C1CC[C@@H]2NCCCCCCN1C(=O)CCC1=O (some centres not stated)	5.86%	14.2%	11.7%	-2.84%	4.61%
CCCc1c(C(C)C)nc(C(C)C)c([C@@H](C)O)c1-c1ccc(F)cc1O	-0.55%	-2.94%	3.38%	-26.2%	-3.24%
O=C(Cn1nc2n(Cc3ccccc3)c(=O)c3ccccc3n2c1=O)NCc1ccccc1Cl	3.31%	0.893%	6.16%	0.755%	1.58%
COc1ccc(CN2C(=O)c3cc(-c4ccccc4)nn3CC2(C)C(=O)NCc2ccccc2OC)cc1 (configuration not stated)	0.128%	-0.074%	4.96%	-1.1%	-15%
O=C(NC1CN(c2ccnc3ccnn23)C1)c1ccc(Cl)nc1	-26.3%	-7.18%	-4.74%	-17.5%	6.97%
COCCCNC(=O)C1(C)Cn2nc(-c3ccccc3)cc2C(=O)N1c1ccc(C)c(Cl)c1 (configuration not stated)	2.77%	2.2%	5.86%	4.19%	-3.9%
COc1ccccc1N1CCN(C(=O)Cn2c(=O)n3nc(C)nc3c3ccccc32)CC1	-0.093%	2%	0.644%	-3.11%	-5.65%
COc1cccc(C(CC(=O)NCC(C)C)c2c[nH]c3ccccc23)c1 (configuration not stated)	-1.45%	-1.9%	-1.15%	-0.873%	4.44%
CCCn1c(=O)c2cc(F)ccc2n2c(SCC(=O)Nc3ccccc3C)nnc12	-4.11%	0.071%	8.08%	-1.98%	5.37%
CN(C(=O)c1ccc(Cl)nc1)C1CCCc2ccccc21 (configuration not stated)	-6.41%	-8.35%	-3%	-23.7%	-21.2%
CCOC(=O)C(CCc1ccccc1)NC(C)C(=O)N1Cc2ccccc2CC1C(=O)O (configuration not stated)	-0.632%	–	9.77%	–	–
Cc1ccc(Cl)cc1NC(=O)CSc1nnc2n(CCCOC(C)C)c(=O)c3ccccc3n12	-6.26%	-0.293%	-0.885%	-15.8%	-4.7%
CCCN1C(=O)c2cc(C(=O)NCCN3CCCCC3)nn2CC1(C)C(=O)NC1CCCC1 (configuration not stated)	5.7%	5.12%	8.72%	7.14%	5.28%
COCCn1c(C)cnc1CCNC(=O)Cc1cccc(F)c1	-1.47%	-4.01%	-11.9%	-8.18%	-7.1%
Cc1cc(C)n(-c2cccc(CN(C)C(=O)Cn3nnnc3CN3CCOCC3)c2)n1	-7.23%	-10.4%	-3.96%	-10.8%	-4.56%
COc1cc(C(=O)OCCCN2CCCN(CCCOC(=O)c3cc(OC)c(OC)c(OC)c3)CC2)cc(OC)c1OC	-0.378%	12%	-16%	-4.5%	6.33%
CCOc1ccc(NC(=O)N2Cc3c(sc4c3CCCC4)-n3cccc3C2c2cccc(F)c2)cc1 (configuration not stated)	2.36%	0%	5.15%	1.35%	6.6%

SMILES	activity change, negative = inhibition [1]	activity change, negative = inhibition [2]	activity change, negative = inhibition [3]	activity change, negative = inhibition [4]	activity change, negative = inhibition [5]
COC(=O)C1=C(C)NC(C)=C([N+](=O)[O-])C1c1ccccc1C(F)(F)F (configuration not stated)	2.31%	14.5%	7.34%	-8.57%	4.05%
COc1ccc(CCNC(=O)C(C)C2CCOCC2)cc1OC (configuration not stated)	-1.75%	-2.9%	-1.83%	-8.78%	-2.83%
O=C1NCCOCCN(C(=O)Nc2ccc3c(c2)OCCO3)[C@@H]2CCCC[C@H]12	-2.83%	-4.88%	-2.15%	-3.93%	-0.23%
CC(C)NC(=O)c1ccc2c(=O)n(C(C)C)c3nn(CC(=O)c4ccc(F)cc4)c(=O)n3c2c1	3.54%	0%	11.7%	-4.23%	4.58%
COc1ccc(CCN2C(=O)c3cc4occc4n3CC2(C)C(=O)NC2CCCCC2)c(OC)c1 (configuration not stated)	3.95%	0.405%	8.8%	-0.263%	6.36%
OCC1OC(Oc2cc(O)cc(/C=C/c3ccc(OC4OC(CO)C(O)C(O)C4O)cc3O)c2)C(O)C(O)C1O (configuration not stated)	0%	0.842%	4.3%	-9.05%	4.58%
Cc1ccc(CCN2C(=O)CSc3c(c4ccccc4n3C)C2C(=O)NCCCOC(C)C)cc1 (configuration not stated)	-4.8%	-2.75%	1.65%	-5.55%	-2.74%
CCCOCCc1nc2c([nH]1)CC(C)(C)CNC2=O	-1.49%	-1.3%	0.316%	-1.77%	-2.62%
COc1c(C)c(C(=O)c2ccc(N)c(C(=O)O)c2)n2ccccc12	-6.02% and -9.56%	-20.3% and -3.08%	3.37% and 6.56%	-24% and -16.9%	-4.44% and -4.95%
Cc1cccc(CN2C(=O)c3nc4ccccc4n3CC2(C)C(=O)NCc2ccccc2)c1 (configuration not stated)	2.88%	0.426%	1.87%	-1.49%	0.532%
COc1cccc(NC(=O)CN(C)S(=O)(=O)c2ccc3[nH]c4c(c3c2)CCCC4)c1	-3.11%	0%	-3.11%	-4.26%	-6.91%
COc1cccc(C(=O)Cn2nc3n(C(C)C)c(=O)c4ccc(C(=O)NCC(C)C)cc4n3c2=O)c1	-5.48%	4.3%	-0.84%	6.7%	2.95%
C#CC(N)CCC(=O)O (configuration not stated)	-1.46%	10.3%	0.803%	1.06%	12.4%
N[C@H](CCCP(=O)(O)O)C(=O)O	3.88%	14.5%	10.3%	-5.16%	1.81%
CS(=O)(=O)N1CCc2ccc(C(=O)NCc3ccc(OC(F)(F)F)cc3)cc21	-4.89%	-1.29%	-1.62%	-2.13%	-5.66%
CC(NCc1cn(CCC(N)=O)c2ccccc12)c1ccccc1-n1cccn1 (configuration not stated)	-2.32%	1.5%	-24.3%	-0.854%	-0.166%
Cc1ccc(-c2nnn3c2nc(N2CCC(C)CC2)c2ccccc23)cc1	-1.14%	1.15%	4.84%	-1.98%	-0.992%
O=S(=O)(c1ccc2[nH]c3c(c2c1)CCCC3)N1CCN(C2CCCCC2)CC1	2.26%	4.4%	0.57%	5.71%	4.79%
CCOc1cccc(CN2CC(C(=O)NCc3ccncc3)C3(CCOCC3)C2)c1 (configuration not stated)	-5%	-14.3%	-4.99%	-11.4%	-6.27%
